Measurements reported in PubChem BioAssay AID1768 (National Center for Advancing Translational Sciences (NCATS), 2009).
The campaign covered roughly 270,000 compounds. About 620 (0.23%) were called active. Inconclusive means that the source gave no clear call. Such entries were picked first, then a sample of the others. Calls come from the whole dose curve; as a rule, active = well fitted inhibition curve with a large enough effect in the polarisation, with a control signal flat (not every such curve was filed as active); inconclusive = small, poorly fitted or top-dose-only effect, or effect the other way, or a change in a side signal; inactive = no such curve, though single readings can be large or run the other way; the % refers to the polarisation. Where the call is inconclusive, the potency comes from a doubtful curve fit. A note “side channel” means that the fit belongs to a control or component signal, not to the main read-out.

target: Menin (Homo sapiens) (UniProt O00255); experiment: qHTS Assay for Inhibitors Targeting the Menin-MLL Interaction in MLL Related Leukemias: Competition With Texas Red Labeled MLL-derived Mutant Peptide; settings: fluorescence polarization; FP activity change, negative = inhibition: at 61.6 µM (top of the series); for FP activity change, negative = inhibition: % of control where 0% means no effect
UniProt O00255, sequence (O00255 whole entry, looked up): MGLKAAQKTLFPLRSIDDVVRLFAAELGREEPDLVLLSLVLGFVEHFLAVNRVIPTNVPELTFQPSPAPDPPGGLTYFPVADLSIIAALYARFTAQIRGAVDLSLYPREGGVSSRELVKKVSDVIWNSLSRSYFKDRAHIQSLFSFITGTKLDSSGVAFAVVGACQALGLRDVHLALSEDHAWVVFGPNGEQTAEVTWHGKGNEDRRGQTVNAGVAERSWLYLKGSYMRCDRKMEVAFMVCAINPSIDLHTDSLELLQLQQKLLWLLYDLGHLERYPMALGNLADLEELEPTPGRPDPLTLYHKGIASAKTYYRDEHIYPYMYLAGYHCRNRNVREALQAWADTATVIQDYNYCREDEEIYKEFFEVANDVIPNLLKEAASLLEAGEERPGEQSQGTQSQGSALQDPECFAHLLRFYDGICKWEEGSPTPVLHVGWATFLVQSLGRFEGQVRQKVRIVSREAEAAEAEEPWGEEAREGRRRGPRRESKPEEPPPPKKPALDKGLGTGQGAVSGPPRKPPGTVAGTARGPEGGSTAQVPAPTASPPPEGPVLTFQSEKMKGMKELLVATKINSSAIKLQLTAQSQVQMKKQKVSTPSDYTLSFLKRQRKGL
Potency is the fitted concentration of half-maximal effect; tags give direction and shape of the fitted curve or compound fluorescence and quenching.

Row | SMILES | Potency | FP activity change, negative = inhibition
1 | Cc1ccc(NC(=O)c2c3c(nc4ccccc24)CCC3)cc1S(=O)(=O)N(C)C | inconclusive: 31.6 µM [quencher, side channel, single point] | 
2 | O=C(Nc1ccc(C(=O)O)cc1)/C(=C\C=C\c1ccccc1)NC(=O)c1ccc(Br)cc1 | inconclusive: 12.6 µM [quencher, side channel, partial curve] | 
3 | CN=c1scc(-c2ccc(F)cc2)n1/N=C/c1ccc(O)c(O)c1 | inconclusive: 14.1 µM [quencher, side channel, partial curve] | 
4 | O=C(O)c1ccc2c3c(cccc13)C(=O)N(OS(=O)(=O)c1ccccc1)C2=O | inconclusive: 39.8 µM [quencher, side channel, single point] | 
5 | O=C(Nc1ccc2c(c1)Cc1ccccc1-2)c1cccnc1 | inconclusive: 10 µM [quencher, side channel, partial curve] | 
6 | O=S(=O)(c1ccc(F)cc1)N1CCc2ccccc21 | inconclusive: 25.1 µM [fluorescent, side channel, single point] | 
7 | Cc1cc(C)n2nc3nc4c(cc3c2n1)CCCC4 | inconclusive: 20 µM [inhibitor, single point] | 
8 | CCN1CCN(Cc2ccc(NC(=O)Nc3ccccc3Cl)cc2)CC1 | inactive | 
9 | COc1ccc(Cl)cc1NC(=O)CSc1sc2c(O)cc(=O)[nH]c2c1C#N | inconclusive: 31.6 µM [quencher, side channel, partial curve] | 
10 | O=C(O)c1ccc2c(c1)C(=O)N(c1cccc(S(=O)(=O)Nc3cccc(C(F)(F)F)c3)c1)C2=O | inconclusive: 17.8 µM [quencher, side channel, partial curve] | 
11 | Cc1ccc(NC(=O)c2ccc(NCCN)c([N+](=O)[O-])c2)cc1 | inactive | 
12 | C#CCCCCCCCCCCCC(O)CC(O)COC(C)=O (configuration not stated) | inconclusive: 14.1 µM [inhibitor, partial curve, poor fit] | 
13 | Cc1cc(C)c2c(c1)C1C=CCC1C(c1ccc(S(=O)(=O)N3CCOCC3)cc1)N2 (configuration not stated) | inconclusive: 14.1 µM [quencher, side channel, partial curve] | 
14 | CCN(CC)c1ccc(C2C(C(=O)OC)=C(C)NC(C)=C2C(=O)OC)cc1 | inconclusive: 8.91 µM [quencher, side channel, partial curve] | 
15 | N=c1c(C(=O)NC2CCCC2)cc2c(=O)n3ccccc3nc2n1CCCN1CCOCC1 | inconclusive: 0.0398 µM [quencher, side channel, full curve, poor fit] | 
16 | O=C1NC(=O)c2cc(NC(=O)c3cccc4ccccc34)ccc21 | inconclusive: 39.8 µM [fluorescent, side channel, single point] | 
17 | O=C(COC(=O)Cc1ccc(S(=O)(=O)N2CCOCC2)s1)NCCc1ccccc1 | inconclusive: 28.2 µM [quencher, side channel, single point] | 
18 | CCCSc1nnc(-c2ccccc2N)c(=O)[nH]1 | inconclusive: 0.708 µM [inhibitor, partial curve, poor fit] | 
19 | O=C(/C=C/c1cc([N+](=O)[O-])ccc1OC(F)F)Nc1cccc(OC(F)F)c1 | inconclusive: 11.2 µM [quencher, side channel, partial curve] | 

Row | SMILES | Potency | FP activity change, negative = inhibition
20 | CCc1ccc2oc(-c3cc(N=Cc4cccc(OC)c4O)ccc3O)nc2c1 | inconclusive: 14.1 µM [quencher, side channel, partial curve] | 
21 | Cc1cnc(NC(=O)c2cc3c(C)nn(-c4ccccc4)c3s2)s1 | inconclusive: 2.82 µM [quencher, side channel, full curve] | 
22 | O=C(CSc1n[nH]c(Cc2ccccc2)n1)Nc1ccccc1Br | inconclusive: 44.7 µM [inhibitor, partial curve, poor fit] | 
23 | CCc1nnc(NC(=O)CCC(=O)NC2CCCCC2)s1 | inconclusive: 39.8 µM [inhibitor, single point] | 
24 | CC(C)Cn1c(N2CCN(CC(=O)Nc3ccc(Cl)cc3)CC2)nc2ccccc21 | inactive | 
25 | COC(=O)c1nn(-c2ccccc2)nc1-c1nn(-c2ccccc2)nc1C(=O)OC | inactive | 
26 | COc1ccc(/C=N/Nc2ccc(C(F)(F)F)cc2[N+](=O)[O-])cc1O | inconclusive: 8.91 µM [quencher, side channel, full curve] | 
27 | COc1ccc(-c2csc3nc(C)nc(N4CCCCC4)c23)cc1OC | inconclusive: 11.2 µM [fluorescent, side channel, partial curve] | 
28 | COc1ccc(NC(=O)c2ccccc2NS(C)(=O)=O)cc1OC | inconclusive: 25.1 µM [quencher, side channel, single point] | 
29 | CCn1c2ccccc2c2cc(NS(=O)(=O)c3ccc(C)cc3)ccc21 | inconclusive: 39.8 µM [inhibitor, single point] | 
30 | CCn1[nH]c(=O)c(=Nc2c(C)n(C)n(-c3ccccc3)c2=O)cc1-c1ccc(Cl)cc1 | inconclusive: 2.82 µM [fluorescent, side channel, full curve, poor fit] | 
31 | Cc1cc(C)c2nc(-c3ccccn3)cc(C(=O)Nc3ccc(S(=O)(=O)Nc4onc(C)c4C)cc3)c2c1 | inconclusive: 10 µM [quencher, partial curve] | 
32 | CCN1C(=O)CC(Sc2ccccc2C(=O)O)C1=O (configuration not stated) | inactive | 
33 | Nc1nn2c(C(F)(F)F)cc(=O)[nH]c2c1N=Nc1cccc(F)c1 | inconclusive: 14.1 µM [quencher, side channel, partial curve] | 
34 | C[C@H]1Cc2c(-c3ccccc3)nc3c(c2CO1)CN(S(=O)(=O)c1ccc2c(c1)OCCN2C)CC3 |  | inactive: -2.06% [at 11.7 µM]
35 | CC(C)CC(NC(=O)OC(C)(C)C)c1cn([C@@H](Cc2cc3ccccc3[nH]2)C(=O)N2CCN(C(=O)OC(C)(C)C)CC2)nn1 (some centres not stated) | inconclusive: 7.94 µM [fluorescent, side channel, partial curve] | 
36 | Cc1ccc(-n2c(=O)cc(N3CC(C)CC(C)C3)[nH]c2=O)cc1 (configuration not stated) | inconclusive: 39.8 µM [inhibitor, single point] | 
37 | COc1cc(C(=S)N2CCOCC2)ccc1OC(=O)c1ccc([N+](=O)[O-])cc1[N+](=O)[O-] | inconclusive: 28.2 µM [quencher, side channel, single point] | 
38 | CC(C)N(C(=O)COc1ccc(Br)cc1Cl)C(C)C | inconclusive: 11.2 µM [fluorescent, side channel, partial curve] | 

Row | SMILES | Potency | FP activity change, negative = inhibition
39 | Cc1ccc(NC(=O)c2cc(-c3ccccc3O)n[nH]2)cc1C | inconclusive: 39.8 µM [fluorescent, side channel, single point] | 
40 | CCC1CCCCN1CC(O)Cn1c2ccccc2n2c(=O)cc(C)c(C#N)c12 (configuration not stated) | inconclusive: 7.08 µM [fluorescent, side channel, single point] | 
41 | c1cncc(-c2nc(NCCN3CCOCC3)c3ccccc3n2)c1 | inconclusive: 39.8 µM [inhibitor, single point] | 
42 | COc1cc(NCCCCCCCN)c2ncccc2c1 | inconclusive: 3.16 µM [inhibitor, full curve] | 
43 | CCOc1ccccc1CN1CCN(Cc2[nH]c3ccccc3c2C)CC1CCO (configuration not stated) | inconclusive: 15.8 µM [fluorescent, side channel, partial curve] | 
44 | OC(CNCC(c1ccco1)N1CCCCC1)c1ccccc1 (configuration not stated) | inconclusive: 8.91 µM [fluorescent, side channel, single point] | 
45 | NC(=O)c1oc2ccccc2c1NC(=O)c1ccc([N+](=O)[O-])o1 | inconclusive: 22.4 µM [quencher, side channel, single point] | 
46 | Clc1ccc(OCCCn2ccnc2)c(Br)c1 | inconclusive: 39.8 µM [inhibitor, single point] | 
47 | O=S(=O)(c1cccs1)N1CCN(c2cccc(Cl)c2)CC1 | inconclusive: 25.1 µM [quencher, side channel, single point] | 
48 | COc1cc(NC(=O)c2cc3ccccc3cc2O)c(OC)cc1Cl | inconclusive: 3.55 µM [quencher, side channel, full curve] | 
49 | COc1ccc(Cl)cc1NC(=O)c1cc(-c2ccccc2O)n[nH]1 | inconclusive: 3.55 µM [quencher, side channel, partial curve] | 
50 | O=C(CC1C(=O)NCCN1Cc1ccccc1C(F)(F)F)NC1CCCCCC1 (configuration not stated) | inconclusive: 28.2 µM [inhibitor, partial curve] | 
51 | O=C(CN1C(=O)C2C3c4ccccc4C(c4ccccc43)C2C1=O)N1CCOCC1 (configuration not stated) | inconclusive: 44.7 µM [inhibitor, partial curve, poor fit] | 
52 | COc1ccc(-n2c(C)cc(/C=C3\SC(=S)NC3=O)c2C)cc1 | inconclusive: 12.6 µM [quencher, side channel, partial curve] | 
53 | c1cc2c(cc1CN1CCN(C3CCCCCC3)CC1)OCO2 | inconclusive: 35.5 µM [inhibitor, single point] | 
54 | Cn1ccnc1COc1ccc(C=O)cc1 | inconclusive: 39.8 µM [inhibitor, single point] | 
55 | Cc1ccccc1CS(=O)(=O)Cc1ccc(C(=O)NCc2ccccn2)o1 | inactive | 
56 | CC1(C)CC23C(=O)CCC(O)C2(C)CCC13 (configuration not stated) | inconclusive: 20 µM [inhibitor, single point] | 
57 | O=C1c2ccccc2C(=O)N1CCc1c[nH]c2ccccc12 | inconclusive: 25.1 µM [quencher, side channel, partial curve] | 
